Experimental findings from patent publication US9511047B2, “Delphinidin for combating melanoma cells” (priority 2012, dated 2016) are described below.

The subject of the data set is human fibroblasts. Put plainly: Cell vitality, ATP luminescence assay, fibroblasts (Example 12). The conditions noted are these: 0.1-100 μM (0.1; 3.2; 100 μM); 4 h, 24 h, 48 h and 96 h (FIG. 19).

As to `Oc1cc(O)c2cc(O)c(-c3cc(O)c(O)c(O)c3)[o+]c2c1.[Cl-]` [delphinidin Cl, delphinidin chloride], the “Cytotoxic effects on human fibroblasts (vitality)” value is reported as “no significant cytotoxic effects”.
